# Test results taken from PubChem BioAssay AID1159614 (National Center for Advancing Translational Sciences (NCATS), 2016).
# Among all 45,000 compounds or so, about 65 (0.1%) were called active. Calls follow the shape of the dose curve; as a rule, active = well fitted activation curve with a large enough effect; inconclusive = small, poorly fitted or top-dose-only effect; inactive = no such curve, though single readings can be large or run the other way. The list shows a part of the results.
# Molecular target: Galactocerebrosidase (Homo sapiens) (UniProt P54803)
# Experiment: A Novel Cell-Based Assay to Identify Small Molecules for B -Galactocerebrosidase; also: nearly all actives have a fitted effect of over 65% in size; as to activation: 0% is about no effect
# Conditions: 145M-Twi-hGALC-G270D cells (Twitcher mouse brain line with human GALC G270D), HMU-beta-Gal fluorescence, 48 h; series mostly up to 57.5 µM; activation: at the top concentration
# Method in brief: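 Mutant human GALC (G270D), stably expressed in a Twitcher mouse brain cell line lacking endogenous GALC, is measured in live-treated cells via 6-hexadecanoylamino-4-methylumbelliferyl-β-galactoside hydrolysis (0.1 mM final, pH 5.2) with fluorescent detection.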
# Potency is read from the fitted curve at half-maximal effect.
# UniProt P54803, sequence (P54803 whole entry, looked up): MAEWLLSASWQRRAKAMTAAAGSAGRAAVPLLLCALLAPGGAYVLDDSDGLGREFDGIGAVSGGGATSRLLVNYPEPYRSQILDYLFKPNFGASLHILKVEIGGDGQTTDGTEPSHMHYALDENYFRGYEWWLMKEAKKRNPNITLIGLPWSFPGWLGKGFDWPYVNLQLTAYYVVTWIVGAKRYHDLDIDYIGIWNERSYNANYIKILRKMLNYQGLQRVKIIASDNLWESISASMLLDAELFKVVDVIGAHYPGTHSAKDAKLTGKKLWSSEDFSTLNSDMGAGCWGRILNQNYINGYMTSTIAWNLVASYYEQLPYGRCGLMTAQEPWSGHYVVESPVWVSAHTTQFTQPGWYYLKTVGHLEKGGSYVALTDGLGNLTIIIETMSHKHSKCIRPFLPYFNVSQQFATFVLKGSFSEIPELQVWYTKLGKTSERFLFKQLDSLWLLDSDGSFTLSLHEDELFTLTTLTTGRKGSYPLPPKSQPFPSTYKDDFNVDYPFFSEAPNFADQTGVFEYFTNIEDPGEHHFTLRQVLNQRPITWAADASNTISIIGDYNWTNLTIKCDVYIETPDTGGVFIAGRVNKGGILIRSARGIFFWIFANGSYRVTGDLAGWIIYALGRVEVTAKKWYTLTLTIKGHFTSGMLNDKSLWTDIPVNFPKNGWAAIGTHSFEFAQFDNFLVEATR
SMILES,activation,Potency
Cc1nn(C(=O)c2ccccc2F)c(C)c1S(=O)(=O)N1CCOCC1,inactive: -0.47%,
COc1cccc(CC(=O)Nc2ccc3nc(N4CCC(C)CC4)cc(C)c3c2)c1,inactive: 11%,
Cc1c(C(=O)N2CCC(C)CC2)c(S(=O)(=O)NCc2ccccc2)c(C)n1C,inactive: -4.68%,
CCOc1ccccc1NS(=O)(=O)c1c(C)nc2sccn2c1=O,inactive: -6.7%,
COc1ccccc1C(=O)Nc1ccc2nc(N3CCC(C)CC3)cc(C)c2c1,inactive: -9.32%,
CC(=O)c1cccc(NC(=O)Cn2c(=O)c(CNc3ccc(C)cc3)cc3cc4c(cc32)OCCO4)c1,inactive: -2.83%,
Cc1ccc(C(=O)Nc2ccc(Br)cc2)cc1S(=O)(=O)N1CCOCC1,inactive: -34.1%,
Cc1ccc(-c2sc(C(=O)Nc3ccc(Br)cc3)cc2CC(=O)O)cc1,inactive: -28.2%,
Cc1cc(C)c(NC(=O)Cn2c(SCC(=O)NCc3ccccc3)nc3ccccc32)c(C)c1,inactive: -24.9%,
CCn1c(=O)c2cc(C(=O)N(CCCOC(C)C)Cc3ccco3)sc2c2ccccc21,inactive: -19.3%,
COc1cc(Cl)c(C)cc1NC(=O)CCn1c(=O)c2cccn2c2cccnc21,inactive: -9.14%,
CSc1ccc(C2c3[nH]c4ccccc4c3CCN2C(=O)CCc2ccccc2)cc1 (configuration not stated),inactive: -10.9%,
COc1cccc(CNC(=O)C2CCN(S(=O)(=O)c3ccc4c(ccn4C)c3)CC2)c1,inactive: 5.56%,
COc1ccc(-c2cn3cccnc3n2)cc1NC(=O)c1c(F)cccc1F,inactive: -6.11%,
COc1ccc(C)cc1Nc1nc2ccccc2c2nnc(C)n12,inactive: -10.1%,
Cc1cccc(CCNC(=O)CCS(=O)(=O)c2cc3c(cc2Cl)NC(=O)CO3)c1,inactive: 5.41%,
Cc1ccc(-n2nc3c(=O)n(CCCC(=O)NCCc4ccccc4)nc(C)c3c2C)cc1,inactive: -9.91%,
CC(C)c1nc2ccc(C(=O)NCc3ccc(N(C)C)cc3)cc2o1,inactive: -14.9%,
Cc1cc(NS(=O)(=O)c2ccc3nc(-c4ccccc4)[nH]c3c2)ccc1Br,inactive: -9.45%,
CC(C)C(=O)Nc1ccc2nc(SCC(=O)N3CCOCC3)sc2c1,inactive: -11.5%,
C=C[C@H]1CN2CC[C@H]1C[C@H]2[C@H](O)c1ccnc2ccc(OC)cc12,inactive: -8.4%,

SMILES,activation,Potency
COc1ccccc1-c1noc(CSc2nnc(Cc3ccccc3)n2-c2ccc(C)c(C)c2)n1,inactive: -10.7%,
Cc1ccc(C)n1-c1nnc(N2CCC(C(=O)NCc3ccc(F)cc3)CC2)s1,inactive: -9.33%,
CCc1nc2cccnc2n1-c1ccc(CC(=O)Nc2ccccc2Cl)cc1,inactive: -9.33%,
CCN1CCN(C(c2cccc(F)c2)c2c(O)cc(C)n(CCOC)c2=O)CC1 (configuration not stated),inactive: -10.8%,
COc1ccc(Cl)cc1NC(=O)c1cc(S(=O)(=O)N2CCC(C)CC2)cn1C,inactive: -11.9%,
CCOc1ccc(CNC(=O)CCC(=O)N2CC3CCCN3c3ccccc32)cc1 (configuration not stated),inactive: -10.9%,
Cc1cccc(NC(=O)CSc2nc3c(oc4ccccc43)c(=O)n2Cc2ccco2)c1,inactive: -10.6%,
O=S(=O)(c1ccc(Br)cc1)c1nnn2c1nc(NC1CCCCCC1)c1sccc12,inactive: -5.94%,
Cc1ccc(N2CC(c3nnc(NC(=O)c4ccco4)s3)CC2=O)cc1Cl (configuration not stated),inactive: -11.2%,
COc1ccc(CCNC(=O)Cc2c(C)c3cc4c(C(C)(C)C)coc4c(C)c3oc2=O)cc1OC,inactive: -15.3%,
Cc1cc(C)c2c(c1)NC(=O)C2(O)c1c[nH]c2ccccc12 (configuration not stated),inactive: -14.6%,
Cc1ccc2c(c1)cc1c(=O)n(Cc3cccc(Cl)c3)nc(C)n12,inactive: -11.3%,
CC(C)c1ccc(C2Sc3ccccc3NC3=C2C(=O)c2ccccc23)cc1 (configuration not stated),inactive: -16.6%,
Cn1nnnc1SCCCNCc1ccc(Cl)cc1,inactive: -11.6%,
COc1ccc(Nc2oc(-c3ccc(COc4cccc(C)c4)o3)nc2C#N)cc1,inactive: -4.31%,
COC(=O)c1cc(NC(=O)CCc2c(C)nc3c(c(C)nn3C(C)(C)C)c2C)cc(C(=O)OC)c1,inactive: -7.26%,
Cc1ccc(C(=O)N(Cc2ccco2)Cc2sccc2C)cc1,inactive: 7.16%,
COc1ccc(-c2nc3c(c(SCC(=O)Nc4cccc(O)c4)n2)Cc2c(CO)cnc(C)c2O3)cc1,inactive: -3.92%,
O=C(NCc1ccc(Cl)cc1)c1cc2c(s1)-c1ccccc1SC2,inactive: -6.83%,
O=C(COc1ccccc1F)Nc1ccccc1C(=O)OCc1cc(=O)n2nc(C3CC3)sc2n1,inactive: 6.31%,
CC1CCc2onc(C(=O)N3CCN(c4ccccc4)CC3)c2C1 (configuration not stated),inactive: -1.99%,

SMILES,activation,Potency
O=C(Nc1cc(Cl)ccc1Cl)c1cc(S(=O)(=O)NCCc2ccccc2)ccc1F,inactive: -18.6%,
Cc1ccc(CN2COc3ccc4c(C)cc(=O)oc4c3C2)cc1,,active: 25.1 µM
Cc1nc(N2CCOCC2)c2c(C(=O)N3CCN(c4ccccc4F)CC3)c(C)oc2n1,inactive: 3.03%,
Cc1ccc(N2C(=O)CC(c3ccccc3F)C3=C2COC3=O)cc1Cl (configuration not stated),inactive: -5.49%,
c1ccc(-c2nc[nH]c2-c2ccccc2)cc1,inactive: -15.9%,
CCc1ccc(NC(=O)C2CCN(c3nn4cc(-c5ccc(OC)cc5)nc4s3)CC2)cc1,inactive: -7.58%,
CCCCCCCC(=O)OCC(O)CO (configuration not stated),inactive: -6.95%,
CCc1ccccc1NC(=O)Cn1c(=O)n(Cc2ccco2)c(=O)c2ccccc21,inactive: -10.3%,
COc1ccc(-c2c(C#N)c(SCC(=O)Nc3cccc(Cl)c3)nc(C)c2C(=O)Nc2ccccc2)cc1OC,inactive: -20.6%,
CCc1nnc2c(N3CCN(c4cccc(C)c4)C(C)C3)nc3ccccc3n12 (configuration not stated),inactive: -12.2%,
Cc1cccc(S(=O)(=O)Nc2cccc(-c3ccc(N4CCCCC4)nn3)c2)c1,inactive: -26.1%,
CCN(CC)C(=O)Cn1c(=O)n(-c2ccc(Cl)c(Cl)c2)c(=O)c2c(C)c(C(=O)N(CC)CC)sc21,inactive: -9.18%,
COc1cccc(Cc2nc3ccccc3nc2SCC(=O)NCCc2ccccc2)c1,inactive: -10%,
COc1ccc(NC(=O)c2ccc3c(c2)N(Cc2cccc(Cl)c2)C(=O)c2ccccc2S3=O)cc1Cl (configuration not stated),inactive: -7.18%,
CC1CCN(c2nc3c(S(=O)(=O)c4ccccc4)nnn3c3ccc(Cl)cc23)CC1,inactive: -3.03%,
COc1ccc(C2C=C(c3ccc(F)cc3)Nc3nc(-c4ccc(Cl)cc4)nn32)cc1 (configuration not stated),inactive: -9.78%,
CCc1ccc(NC(=O)CCn2c(-c3ccc(OC)cc3)cc(C(C)=O)c2C)cc1,inactive: -8.91%,
COc1ccc(-n2nc3c(N4CCC(C(=O)NCc5cccc(F)c5)CC4)nnc(C)c3c2C)cc1,inactive: 4.26%,
CC(=O)c1cccc(NC(=O)CN2C(=O)c3ccccc3Sc3ncccc32)c1,inactive: -8.24%,
Cc1c(C)n(Cc2ccccc2)c2ccc(C(=O)NCc3ccccc3F)cc12,inactive: -5.64%,
